{"source": "PubChem BioAssay AID1671194", "about": "(National Center for Advancing Translational Sciences (NCATS), 2021)", "note": "Several values for one entry are separate records, joined by “and”; a condition that tells them apart may be missing. Equal entries are not always repeated. Out of some 140,000 compounds screened, about 240 (0.17%) were called active. Inconclusive means that the source gave no clear call. Such entries were picked first, then a sample of the others. Calls follow the shape of the dose curve; as a rule, active = well fitted inhibition curve with a large enough effect; inconclusive = small, poorly fitted or top-dose-only effect; inactive = no such curve, though single readings can be large or run the other way. Potencies of inconclusive entries are doubtful fits and often do not repeat. Potency is read from the fitted curve at half-maximal effect; tags tell the direction and shape of the fitted curve."}
{"test": "Primary qHTS assay for inhibitors of alpha-synuclein gene (SNCA) expression; also: nearly all actives have a fitted effect of over 45% in size", "conditions": "HEK-293 SNCA-luciferase knock-in, luminescence, 24 h; series mostly up to 57.2 µM"}
{"smiles": "COc1ccc(-c2nc3cnc(Nc4ccccc4)nc3n(CCC#N)c2=O)cc1", "Potency": "inconclusive: 3.16 µM [inhibitor, full curve, poor fit]"}
{"smiles": "CCOC(=O)c1cccc(NS(=O)(=O)c2ccc(-c3cnc(C4CC4)o3)cc2)c1", "Potency": "inconclusive: 7.08 µM [inhibitor, full curve, poor fit]"}
{"smiles": "CCOc1ccc(NC(=O)CN2C=C(C(=O)OC)C(C)=NS2(=O)=O)cc1", "Potency": "inconclusive: 5.62 µM [inhibitor, partial curve, poor fit]"}
{"smiles": "Cc1noc([C@@H]2CN(C(=O)c3ccc4[nH]ccc4c3)C[C@H]2CO)n1", "Potency": "inactive"}
{"smiles": "CC(C)(C)C(=O)NC1CCN(c2nc3ncccc3o2)CC1", "Potency": "inconclusive: 4.47 µM [inhibitor, single point]"}
{"smiles": "O=C(COc1ccccc1Cl)Nc1nnc(S(=O)(=O)N2CCCCCC2)s1", "Potency": "inconclusive: 2.51 µM [inhibitor, single point]"}
{"smiles": "COc1cccc(CC(=O)N2CCC3(CC2)N(C)C(=O)CS3(=O)=O)c1", "Potency": "inconclusive: 14.1 µM [inhibitor, partial curve, poor fit]"}
{"smiles": "O=C(c1ccc(C(F)(F)F)cc1)N1CCC2(C1)C(=O)N(CCc1ccccc1)c1ccccc12", "note": "(configuration not stated)", "Potency": "inactive and inconclusive: 39.8 µM [inhibitor, single point]"}
{"smiles": "COc1ccc(N(Cc2cccs2)C(=O)c2ccc(OCC(C)C)cc2)cc1", "Potency": "inconclusive: 10 µM [inhibitor, partial curve, poor fit]"}
{"smiles": "COC(=O)[C@@H]1[C@H]2C[C@H]3c4[nH]c5ccccc5c4CCN3C[C@@H]2CC[C@@H]1O", "Potency": "inactive"}
{"smiles": "C#CCNC(=O)c1cc(-c2ccccc2)nc2c1cnn2C", "Potency": "inactive"}
{"smiles": "CC(C)CCN1CCOc2cc(C(=O)Nc3ccccc3)ccc2C1", "Potency": "inactive"}
{"smiles": "Cc1ncoc1C(=O)N1CCC(c2noc(-c3ccncc3)n2)C1", "note": "(configuration not stated)", "Potency": "inactive"}
{"smiles": "O=C(CNC(=O)c1cccc(-c2ccc(C(F)(F)F)cc2)c1)NCc1ccc2c(c1)OCO2", "Potency": "inactive"}
{"smiles": "Cc1cnc(N2CC3CCC(C2)N3CC(F)(F)F)s1", "Potency": "inactive"}
{"smiles": "O=C(Cc1c[nH]c2ccccc12)N1CCCN(c2cc(-c3ccc(Br)cc3)[nH]n2)CC1", "Potency": "inconclusive: 35.5 µM [inhibitor, single point]"}
{"smiles": "COc1ccccc1CNS(=O)(=O)c1ccc(-c2cnc(C3CC3)o2)cc1", "Potency": "inconclusive: 6.31 µM [inhibitor, single point]"}
{"smiles": "CCCOc1ccc(-c2nonc2NC(=O)c2cc(OC)c(OC)c(OC)c2)cc1OCCC", "Potency": "inconclusive: 39.8 µM [inhibitor, single point]"}
{"smiles": "CCc1ccc(NS(=O)(=O)c2cc(-c3cnc(C4CC4)o3)ccc2C)cc1", "Potency": "inconclusive: 39.8 µM [inhibitor, single point]"}
{"smiles": "COc1cc(CN2CC=C(C)CC2)ccc1OCC(O)CN1CCSCC1", "note": "(configuration not stated)", "Potency": "inconclusive: 0.891 µM [inhibitor, full curve]"}
{"smiles": "Cc1cc(C)c(CNC(=O)c2nc(-c3ccc(F)cc3)cc3c2ccn3C(C)C)c(=O)[nH]1", "Potency": "inconclusive: 14.1 µM [inhibitor, partial curve, poor fit]"}
{"smiles": "O=C(c1cn[nH]c1)N1CCC(c2nc(CCOCC3CC3)no2)C1", "note": "(configuration not stated)", "Potency": "inconclusive: 39.8 µM [inhibitor, single point]"}
{"smiles": "Cc1cccc(S(=O)(=O)N(C)CC2CCOCC2)c1", "Potency": "inconclusive: 17.8 µM [inhibitor, partial curve, poor fit]"}
{"smiles": "O=C1[C@H]2CC[C@H](CN(Cc3ccc(-n4ccnc4)cc3)C2)N1CC1CCC1", "Potency": "inactive"}
{"smiles": "COc1cc(F)ccc1-c1nccc2c(=O)cc(N(C)C3CCOCC3)oc12", "Potency": "inconclusive: 12.6 µM [inhibitor, single point]"}
{"smiles": "COc1ccc(S(=O)(=O)c2c(C(=O)c3ccc(C)c(C)c3)cnc3ccc(F)cc23)cc1", "Potency": "inconclusive: 39.8 µM [inhibitor, single point]"}
{"smiles": "O=S(=O)(Nc1cccc(C(F)(F)F)c1)c1ccc(-c2cnc(C3CC3)o2)cc1", "Potency": "inconclusive: 3.98 µM [inhibitor, partial curve, poor fit]"}
{"smiles": "COc1ccc(-c2ccc3nc(-c4ccc(F)cc4F)oc3c2)c(OC)c1OC", "Potency": "inactive"}
{"smiles": "Cc1cnc2c(C(=O)N[C@H](C3CCNCC3)C3CC(O)C3)cnn2c1", "note": "(some centres not stated)", "Potency": "inactive"}
{"smiles": "CCOC(=O)CSc1nnc2n(-c3ccccc3)c(=O)c3c4c(sc3n12)CC(C(C)(C)C)CC4", "note": "(configuration not stated)", "Potency": "inconclusive: 5.62 µM [inhibitor, partial curve]"}
{"smiles": "O=C(NCC1CC1)c1cn2cc(-c3ccccc3)sc2n1", "Potency": "inactive"}
{"smiles": "Clc1ccc2nc(-c3nc(C4CCOC4)no3)cn2c1", "note": "(configuration not stated)", "Potency": "inactive"}
{"smiles": "CCc1ccccc1NC(=O)Cn1c2ncccc2c(=O)n1-c1ccccc1", "Potency": "inconclusive: 31.6 µM [inhibitor, single point]"}
{"smiles": "COc1ccc(-c2noc([C@@H]3C[C@@H](O)CN3C3CCCCC3)n2)cc1", "Potency": "inactive"}
{"smiles": "O=c1[nH]c(C2CCCN(Cc3ccccn3)C2)nn1-c1ccccc1", "note": "(configuration not stated)", "Potency": "inconclusive: 2.82 µM [inhibitor, full curve, poor fit]"}
{"smiles": "Cc1ccccc1C(=O)N1CCCN(c2cc(-c3ccc(Cl)cc3)[nH]n2)CC1", "Potency": "inconclusive: 11.2 µM [inhibitor, partial curve, poor fit]"}
{"smiles": "Cc1ccc(N(C)C(=O)c2cc(S(=O)(=O)N3CCOCC3)cn2C)cc1", "Potency": "inconclusive: 2.24 µM [inhibitor, partial curve, poor fit]"}
{"smiles": "CC1=C[C@@H](CNC(=O)N2CCOCC2)[C@H](C(C)C)C[C@H]1Cc1nc2ccccc2n1C", "Potency": "inconclusive: 14.1 µM [inhibitor, single point]"}
{"smiles": "CCOc1cccc(CN2CC[C@@](C)(O)[C@H](N3CCCC3)C2)c1", "Potency": "inactive"}
{"smiles": "O=C(NCc1ccccn1)c1csc(N2CCN(c3ccccc3)CC2)n1", "Potency": "inactive"}
{"smiles": "CC(=O)N[C@H]1CO[C@H]2[C@@H]1OC[C@@H]2Nc1nccc(-c2cccc(F)c2)n1", "Potency": "inconclusive: 7.08 µM [inhibitor, single point]"}
{"smiles": "COc1ccc(F)cc1-c1cccc(C(=O)NCCNC(=O)Nc2ccccc2)c1", "Potency": "inactive"}
